From PubChem BioAssay AID602292 (National Center for Advancing Translational Sciences (NCATS), 2012)
The campaign covered roughly 1,300 compounds. About 380 (29%) were called active. Inconclusive means that the source gave no clear call. Such entries were picked first, then a sample of the others. Calls follow the shape of the dose curve; as a rule, active = well fitted inhibition curve with a large enough effect; inconclusive = small, poorly fitted or top-dose-only effect; inactive = flat fitted curve, though single readings scatter. Potencies of inconclusive entries are left out as doubtful fits.

These compounds were tested against Thyrotropin receptor (Homo sapiens) (UniProt P16473) (assay: qHTS for antagonists of the Thyroid Stimulation Hormone Receptor: Hit Validation in Primary Screen). Conditions: TSHR-expressing cells, cAMP antagonist mode.
How it was run: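 TSHR-expressing cells were pretreated with compound, then stimulated with TSH at EC80 (4nM final) for 2 hours at 37 deg C. Cellular cAMP measured by competitive HTRF (anti-cAMP cryptate, cAMP-d2) after 30 min at room temperature.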
Also: nearly all actives have a fitted effect of over 80% in size.
Potency is read from the fitted curve at half-maximal effect; tags tell the direction and shape of the fitted curve.

Sequence of UniProt P16473 (P16473 whole entry, looked up): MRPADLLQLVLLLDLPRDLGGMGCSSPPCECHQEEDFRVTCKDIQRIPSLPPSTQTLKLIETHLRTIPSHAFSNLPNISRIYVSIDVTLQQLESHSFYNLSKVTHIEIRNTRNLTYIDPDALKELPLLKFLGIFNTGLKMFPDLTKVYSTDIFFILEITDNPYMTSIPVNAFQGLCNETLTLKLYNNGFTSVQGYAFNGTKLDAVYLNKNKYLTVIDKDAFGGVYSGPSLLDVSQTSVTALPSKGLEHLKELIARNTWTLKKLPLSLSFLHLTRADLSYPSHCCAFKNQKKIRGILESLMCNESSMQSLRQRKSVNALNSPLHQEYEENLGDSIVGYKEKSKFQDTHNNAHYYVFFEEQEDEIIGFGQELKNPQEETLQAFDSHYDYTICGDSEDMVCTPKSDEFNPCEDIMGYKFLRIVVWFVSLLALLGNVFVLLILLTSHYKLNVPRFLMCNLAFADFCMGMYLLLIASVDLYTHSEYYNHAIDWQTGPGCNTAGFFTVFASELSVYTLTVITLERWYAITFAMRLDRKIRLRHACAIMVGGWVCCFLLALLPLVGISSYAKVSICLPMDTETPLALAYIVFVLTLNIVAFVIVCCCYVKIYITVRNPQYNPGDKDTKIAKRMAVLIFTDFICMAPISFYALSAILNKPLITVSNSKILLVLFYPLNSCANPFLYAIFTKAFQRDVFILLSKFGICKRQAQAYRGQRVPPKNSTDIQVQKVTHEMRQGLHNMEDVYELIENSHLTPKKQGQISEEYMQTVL

| SMILES | Potency |
| --- | --- |
| COc1ccccc1CNC(=O)CSc1nc(N)c(C#N)c(-c2cccs2)c1C#N | active: 37.9 µM |
| Cc1cc(NC(=O)c2cccc(S(=O)(=O)N3CCOCC3)c2)c2ccccc2n1 | inconclusive [inhibitor, partial curve, poor fit] |
| Cc1ccnc(OC(C(=O)O)C(OCCc2ccccc2)(c2ccccc2)c2ccccc2)n1 (stereo not drawn) | inactive |
| CCOC(=O)COc1ccccc1/C=C\[N+](=O)[O-] | active: 30.1 µM |
| CS(=O)(=O)N1CCc2cc(C(=O)Nc3ccc(COCC(F)(F)F)cc3)ccc21 | inactive |
| CC1=C(C(=O)OCC(Cl)(Cl)Cl)N2C(=O)C(NC(=O)Cc3ccccc3)C2SC1 (stereo not drawn) | inconclusive [inhibitor, partial curve] |
| CN(c1ccc(OCC(=O)Nc2nc3ccccc3s2)cc1)S(=O)(=O)c1ccccc1 | inconclusive [inhibitor, partial curve] |
| O=C(NCCC1=CCCCC1)C(=O)NCC1OCCCN1S(=O)(=O)c1cc(F)ccc1F (stereo not drawn) | inconclusive [inhibitor, partial curve, poor fit] |
| COc1cccc(-c2nc(CS(=O)(=O)CC(=O)NC3CCCCCC3)c(C)o2)c1 | inconclusive [inhibitor, partial curve] |
| CN(C)S(=O)(=O)N1CCN(c2ccnc3cc(Cl)ccc23)CC1 | inactive |
| COC(=O)[C@H]1[C@H]2C[C@@H]3c4[nH]c5cc(OC)ccc5c4CCN3C[C@H]2C[C@@H](OC(=O)/C=C/c2cc(OC)c(OC)c(OC)c2)[C@@H]1OC | inactive |
| COc1cc2ccccc2cc1C(=O)N1CCCC1 | inactive |
| COc1ccc(OC)c(NC(=O)CSc2ncnc3c2cnn3-c2ccccc2Cl)c1 | inconclusive [inhibitor, partial curve] |
| COc1ccccc1CNc1ncnc2sccc12 | inconclusive [inhibitor, partial curve] |
| CCN(CC)S(=O)(=O)c1cccc(C(=O)/C=C2/N(C)c3ccccc3C2(C)C)c1 | inconclusive [inhibitor, partial curve] |
| CC1S/C(=N\N=C\c2cccc([N+](=O)[O-])c2)N(C(C)(C)C)C1=O (stereo not drawn) | inconclusive [inhibitor, partial curve] |
| CCCCN1C(=O)c2ccc(C(=O)Nc3ccc(C)c(S(=O)(=O)N(C)C)c3)cc2C1=O | active: 23.9 µM |
| Cc1ccc(NS(=O)(=O)c2cc(C(=O)Nc3cccc([N+](=O)[O-])c3)ccc2C)cc1 | active: 21.3 µM |
| O=S(=O)(c1ccc(SCc2ccc(Cl)cc2)nc1)N1CCCC1 | inconclusive [inhibitor, partial curve] |
| COc1ccc(NS(=O)(=O)c2ccc3c(c2)Cc2ccccc2-3)cn1 | inconclusive [inhibitor, partial curve] |
| Cc1ccc(-c2cn3cc(C)ccc3n2)cc1 | inconclusive [inhibitor, partial curve, poor fit] |
| Cc1ccc(Cl)cc1NC1=C/C(=N\S(=O)(=O)c2cccs2)c2ccccc2C1=O | inconclusive [inhibitor, partial curve, poor fit] |
| Cc1ccc(-c2cc(C(=O)Nc3ccncc3)c3ccccc3n2)cc1 | inconclusive [inhibitor, partial curve, poor fit] |

| SMILES | Potency |
| --- | --- |
| O=C1C(Cl)=C(Nc2ccc(O)cc2)C(=O)c2ccccc21 | inconclusive [inhibitor, partial curve] |
| COC(=O)CCN(Cc1cc(OC)ccc1OC)S(=O)(=O)c1ccccc1Br | inconclusive [inhibitor, partial curve] |
| Cc1cc(C)cc(OC(C)C(=O)NCCCn2ccnc2)c1 (stereo not drawn) | inactive |
| C/C(=N\NC(=O)c1nnn(-c2nonc2N)c1-c1ccc(Cl)c(Cl)c1)c1ccncc1 | inactive |
| O=C(NC1CCOc2ccccc21)c1ccccn1 (stereo not drawn) | inactive |
| O=C(CSc1ccccn1)Nc1cccc2ccccc12 | inactive |
| O=C(NCc1ccc2c(c1)OCO2)C12CN(Cc3ccccc3)CC1C(c1cccc([N+](=O)[O-])c1)=NO2 (stereo not drawn) | inconclusive [inhibitor, partial curve, poor fit] |
| Cc1ccc(C)c(N2CCN(C(=O)C(Cc3ccccc3)n3cccc3)CC2)c1 (stereo not drawn) | inconclusive [inhibitor, partial curve] |
| CC(=O)C1=C(O)C(=O)N(c2ccc(O)cc2)C1c1cccc(F)c1 (stereo not drawn) | inactive |
| COc1ccc(NS(=O)(=O)c2cccc(NC(=O)c3ccc(S(=O)(=O)N4CCCCCC4)cc3)c2)cc1 | inconclusive [inhibitor, partial curve] |
| Cc1c(C=O)c2ccccc2n1CCOc1ccccc1 | inconclusive [inhibitor, partial curve] |
| CCOc1ccc(CCNC(=O)c2ccc3c(=O)[nH]c4c(C(=O)NC(C)C)sc(=S)n4c3c2)cc1 | active: 6.01 µM |
| CC(C)C(NC(=O)Cc1ccccc1)C(=O)N1CCN(c2cccc(Cl)c2)CC1 (stereo not drawn) | inconclusive [inhibitor, partial curve] |
| CCCCn1c(NC(=O)c2ccccc2Cl)c(C#N)c2nc3ccccc3nc21 | active: 15.1 µM |
| COc1ccc(-c2cc(C3CCN(c4cc(Cl)nc(N)n4)CC3)[nH]n2)cc1 | active: 37.9 µM |
| CC(C)N(C(=O)Cn1c(-c2cccnc2)ccc(C#N)c1=O)C(C)C | inactive |
| Cn1c2c(c(=O)[nH]c1=O)C(c1ccc(O)cc1)C1=C(N2)c2ccccc2C1=O (stereo not drawn) | inconclusive [inhibitor, partial curve, poor fit] |
| COc1cc(/C=C2\SC(=O)N(c3ccc(Cl)cc3)C2=O)cc([N+](=O)[O-])c1O | inconclusive [inhibitor, partial curve] |
| CC(C)CC(=O)NC(NC(=S)Nc1sc2c(c1C#N)CCCC2)C(Cl)(Cl)Cl (stereo not drawn) | active: 23.9 µM |
| CC[C@@H](C(=O)[C@@H](C)[C@@H](O)[C@H](C)CCc1ccc(C)c(O)c1C(=O)O)[C@H]1O[C@](CC)([C@H]2CC[C@](O)(CC)[C@H](C)O2)C[C@@H]1C | active: 4.78 µM |
| CC1(C)C2CCC1(C)C(OC(=O)CCn1ccnc1)C2 (stereo not drawn) | inconclusive [inhibitor, partial curve] |
| O=C(Nc1ccncc1)c1ccc2c(c1)C(=O)N(C1CCCCC1)C2=O | inconclusive [inhibitor, partial curve] |
| O=S(=O)(Nc1cccc(-n2cnnn2)c1)c1ccccc1C(F)(F)F | inactive |

| SMILES | Potency |
| --- | --- |
| Cc1cccc2sc(NC(=O)C3CCN(S(=O)(=O)c4cc([N+](=O)[O-])ccc4Cl)CC3)nc12 | inconclusive [inhibitor, partial curve] |
| Cc1cc(C(C)(C)C)oc1C(=O)N(CC(=O)NC1CCCC1)c1cccc(C(F)(F)F)c1 | inconclusive [inhibitor, partial curve] |
| Fc1cccc(Cl)c1CNCc1cccnc1 | inactive |
| O=C1OC(CC(=O)N(Cc2nnc(-c3ccc(Cl)cc3)o2)C2CC2)c2ccccc21 (stereo not drawn) | inactive |
| COc1ccc(Cc2nc(C(=O)Nc3ccc(Cl)cc3)cs2)cc1 | inconclusive [inhibitor, partial curve] |
| O=[N+]([O-])c1cccc(S(=O)(=O)Nc2nc3ccccc3nc2Nc2cccc(S(=O)(=O)N3CCCCC3)c2)c1 | active: 12 µM |
| S=c1sc2c(Cl)ncnc2n1-c1ccccc1 | inconclusive [inhibitor, partial curve] |
| COc1ccc(NC(=S)NC(=O)/C=C/c2ccco2)cc1 | inconclusive [inhibitor, partial curve, poor fit] |
| COc1ccc(C(=O)/C(=C\c2ccco2)N2C=CC=CC2=C(C#N)C#N)cc1 | inconclusive [inhibitor, partial curve] |
| CCOc1cc(/C=C2\SC(=NC)N(C)C2=O)c(Br)cc1OC(C)=O | inconclusive [inhibitor, partial curve, poor fit] |
| O=C(COc1ccc(Cl)cc1)Nc1nc(-c2cccs2)cs1 | active: 23.9 µM |
| COc1ccc(CC(=O)Oc2cc(C)ccc2C)cc1 | inactive |
| O=S(=O)(c1cccc(Br)c1)N1CCN(CCc2ccccc2)CC1 | inconclusive [inhibitor, partial curve] |
| CS(=O)(=O)N(CCc1ccccc1)CC(=O)Nc1ccc(OCc2ccccc2)cc1 | inconclusive [inhibitor, partial curve] |
| CCn1c(=S)sc2c(=O)n(CC(=O)Nc3ccccc3OC)c(C)nc21 | inactive |
| COc1ccc(CNC(=O)C(C)OC(=O)c2cccs2)cc1 (stereo not drawn) | inactive |
| CCSC1=NSC2=NC(=O)/C(=C\c3coc4ccccc4c3=O)C(=N)N12 | active: 1.69 µM |
| CSc1cnn(Cc2ccccc2)c(=O)c1SCc1ccccc1 | inconclusive [inhibitor, partial curve] |
| CSc1nnc(C(C)(C)C)c(=O)n1/N=C/c1c(O)ccc2ccccc12 | inconclusive [inhibitor, partial curve] |
| CC(=O)Nc1ccc(NC(=O)C(C)OC(=O)c2ccccc2C(=O)c2ccc(Cl)c([N+](=O)[O-])c2)cc1 (stereo not drawn) | inconclusive [inhibitor, partial curve] |
| N#Cc1c(Cl)nsc1NC(=O)c1ccccc1 | active: 7.57 µM |
| Cc1ccc(S(=O)(=O)N2CCCC(C(=O)NC3CCCC3)C2)cc1Cl (stereo not drawn) | inactive |
